# According to PMC6919601, “Identification of Plasmodium dipeptidyl aminopeptidase allosteric inhibitors by high throughput screening” (PLoS ONE, 2019):
# The campaign covered roughly 110,000 compounds. About 230 (0.21%) showed an effect of 50% or more. The list shows a part of the results.
# Biological target: DPAP1 (Plasmodium falciparum, UniProt Q8IIJ9)
# Experiment: primary screen, percent inhibition; read by cleavage of a fluorogenic dipeptide substrate; higher = more effect of the substance
# Parameters: species or system P. falciparum D10 trophozoite lysates; single well
# 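Further: 30 min substrate incubation versus DMSO and 10 µM JCP410 controls.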
# Sequence of DPAP1 (Q8IIJ9 whole entry, looked up): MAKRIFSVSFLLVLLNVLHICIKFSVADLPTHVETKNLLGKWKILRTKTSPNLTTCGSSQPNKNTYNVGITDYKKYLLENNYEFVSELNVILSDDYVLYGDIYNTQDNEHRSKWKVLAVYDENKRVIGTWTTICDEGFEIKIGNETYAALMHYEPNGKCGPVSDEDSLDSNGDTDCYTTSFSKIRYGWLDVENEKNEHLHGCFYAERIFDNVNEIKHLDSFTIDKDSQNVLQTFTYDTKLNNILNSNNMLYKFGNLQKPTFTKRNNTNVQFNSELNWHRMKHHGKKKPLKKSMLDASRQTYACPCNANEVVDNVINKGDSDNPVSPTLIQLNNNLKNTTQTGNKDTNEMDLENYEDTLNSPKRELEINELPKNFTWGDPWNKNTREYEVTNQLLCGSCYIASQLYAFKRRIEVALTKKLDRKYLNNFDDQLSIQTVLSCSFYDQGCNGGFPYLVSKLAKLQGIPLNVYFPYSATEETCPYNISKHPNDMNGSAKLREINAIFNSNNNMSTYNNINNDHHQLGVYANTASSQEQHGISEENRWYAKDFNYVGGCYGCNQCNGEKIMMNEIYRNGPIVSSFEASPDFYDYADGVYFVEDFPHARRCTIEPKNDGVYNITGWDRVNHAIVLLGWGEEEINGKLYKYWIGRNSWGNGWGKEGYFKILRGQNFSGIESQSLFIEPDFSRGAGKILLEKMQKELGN
row,SMILES,% Inhibition @ 10 uM [%]
1,COCCCn1c(CCC(=O)O)ccc1-c1ccc(Cl)cc1,0.558
2,COc1ccc(-c2csc3ncn(CC(=O)NC4CCCCC4)c(=O)c23)cc1OC,5.14
3,Cc1ccc(CNC(=O)C2(S(=O)(=O)c3ccc(C)cc3)CC2)cc1,1.76
4,CCC(C)NC(=O)C1CCCN(S(=O)(=O)c2c(C)noc2/C=C/c2cccs2)C1 (centres unmarked),-9.16
5,CC1CCN(S(=O)(=O)c2cc(C(=O)O)ccc2Br)CC1,0.827
6,CN1CCN(Cc2coc3ccccc3c2=O)CC1,4.81
7,CCCN1C(=O)S/C(=C\c2ccc(N3CCOCC3)o2)C1=O,-3.41
8,O=C(O)C1C2C=CC(C2)C1C(=O)NCCCc1ccccc1 (centres unmarked),4.11
9,O=C(O)c1cnc2ccc(S(=O)(=O)NC3CCCCNC3=O)cc2c1O (centres unmarked),1.17
10,Cc1cccc(N2C(=O)NC(=O)/C(=C\c3ccco3)C2=O)c1,-1.15
11,C=CCOc1ccccc1CNc1cccc(C(=O)O)c1,2.02
12,O=C1C(c2ccc(Cl)cc2)N(C2CCCCC2)C(=O)CN1C1CCCCC1 (centres unmarked),-7.73
13,CCCS(=O)(=O)NCc1cn2c(C)csc2n1,0.953
14,Cc1cc(C)n(-c2nc3cc(Cl)ccc3nc2NCCN2CCOCC2)n1,4.83
15,O=C(NCc1ccccc1)C(=O)NCc1ccc2c(c1)OCO2,1.96
16,CCOC(=O)N1CCC(NC(=O)c2cc3c(-c4ccccc4F)nn(C)c3s2)CC1,-1.43
17,Cc1cccc2c1-c1sc(C(=O)NCc3ccco3)cc1CO2,-1.37
18,CC(=O)N1CCc2c(sc3nc(SCCC(C)C)n(Cc4ccco4)c(=O)c23)C1,-1.71
19,CCOc1ccccc1CNC(=O)C(C)n1nc(C)c2sc3ccccc3c2c1=O (centres unmarked),-1.17
20,CC1CCCC(C)N1S(=O)(=O)c1ccc(S(=O)(=O)N2CCN(c3ncccn3)CC2)cc1 (centres unmarked),-2.92
21,CCOc1ccccc1NC(=O)C1CCCCC1,1.19
22,COc1ccc(S(=O)(=O)N(C)CC(=O)Nc2ccc(Br)cc2F)cc1OC,-4.12

row,SMILES,% Inhibition @ 10 uM [%]
1,O=C(COc1ccc2ccccc2c1Br)NCc1ccccc1,-0.652
2,CC(=O)c1cccc(NC(=O)/C=C/c2ccc([N+](=O)[O-])cc2)c1,6.43
3,CCN(CC)c1ccc(NC(=O)c2ccc3c(c2)OCCO3)cc1,0.993
4,COc1ccc(CN2CCN(C)CC2)c(OC)c1,1.43
5,OC1=C2C(=Nc3ncnn3C2c2ccco2)CC(c2ccccc2)C1 (centres unmarked),0.032
6,Cc1ccc(-n2c3c(c(=O)[nH]c2=O)C(NC(=O)c2ccc(Cl)cc2)(C(F)(F)F)C(=O)N3)cc1C (centres unmarked),-1.22
7,c1ccc(-c2cc(N3CCCCC3)nc3ccccc23)cc1,2.66
8,Cc1ccccc1Cn1cc(NC(=O)c2cc3ccccc3oc2=O)cn1,7.04
9,Cc1ccsc1-c1nc(CSCC(=O)NCc2ccc(Cl)cc2)c(C)o1,2.37
10,CCCCOc1ccc(NC(=O)/C=C/C(=O)O)cc1,0.878
11,Cc1ccc(-c2cc(C(=O)Nc3ccccc3C(N)=O)c3ccccc3n2)cc1,0.188
12,CC1CCCCN1C(=O)Cn1cc(C(=O)C2CC2)c2ccccc21 (centres unmarked),3.25
13,Cc1cccc(CSCCNC(=O)CN2C(=O)c3cccc4cccc2c34)c1,-2.16
14,Cc1c(CC(=O)NCc2ccco2)c(=O)oc2c(C)c(O)ccc12,5.68
15,CC(NC(=O)c1cc(C2CC2)on1)c1ccccc1 (centres unmarked),-8.56
16,CCCCCNC(=O)c1nnn(-c2cccc(C(F)(F)F)c2)c1N,1.24
17,Cc1ccc(/C=C2\C(=N)N3N=C(N4CCOCC4)SC3=NC2=O)cc1,1.51
18,Cn1c(-c2ccccn2)nc2ccccc21,3.44
19,CCCCC(=O)Nc1sc2c(c1C(=O)OCC)CCC/C2=N\O,7.33
20,Cc1ccc2c(CNCCc3cccs3)c(C(=O)O)n(Cc3ccccc3F)c2c1,0.158
21,Cc1nn(CCCC(=O)NCc2ccccn2)c(=O)c2cc3sccc3n12,4.95
22,CCOC(=O)c1nnn(-c2nonc2N)c1-c1ccc2c(c1)OCO2,3.25

row,SMILES,% Inhibition @ 10 uM [%]
1,CCN(Cc1ccncc1)C(=O)Cc1ccccc1,1.87
2,C=CCn1c(-c2ccccc2)cs/c1=N\c1ccccc1,1.72
3,CN(CC(=O)NC1CCCc2ccccc21)S(=O)(=O)c1cc(Br)cnc1N (centres unmarked),4.86
4,C=Cc1ccc(Cn2c(C(=O)O)c(CNCCC3=CCCCC3)c3ccccc32)cc1,8.05
5,Cc1cccc(C(=O)Nc2c3c(nn2-c2ccccc2C)CS(=O)(=O)C3)c1,11.1
6,O=C(NCc1cn2ccsc2n1)c1cccs1,-2.45
7,COc1ccc(CCNCc2ccc(C(F)(F)F)cc2)cc1,1.84
8,Cc1[nH]c2ccccc2c1CN1CCCCCC1,0.501
9,NC(=O)c1sc2nc(C3CC3)cc(-c3ccc(Cl)cc3)c2c1N,-4.5
10,COC(=O)c1cnn(-c2ccccc2)c1-n1cccc1C=O,3.04
11,Cc1nn(C(=O)C2CCCN2S(=O)(=O)c2ccc(Cl)cc2)c(C)c1Sc1ccccc1 (centres unmarked),2.03
12,COc1ccc(C2C(C#N)=C(N)Oc3c2c(O)nc2ccccc32)cc1OC (centres unmarked),-1.1
13,COc1ccc(NCN2C(=O)C3C4C=CC(C4)C3C2=O)cc1 (centres unmarked),-0.996
14,Cc1c(CCC(=O)O)c(=O)oc2cc3occ(-c4ccc(F)cc4)c3cc12,-2.92
15,COc1ccc(-c2ccc3c(N)c(C(=O)Nc4ccc5c(c4)OCO5)sc3n2)cc1OC,-3.41
16,Oc1ccc(CN2CCOCC2)nc1CCc1ccccc1,2.94
17,COCCN1C(=O)c2ccccc2C(C(=O)NCCN(C)C2CCCCC2)C1c1cccs1 (centres unmarked),-4.68
18,CC1C(=O)CCN(Cc2ccccc2)C1C (centres unmarked),1.03
19,CCc1ccc(SC(CC(=O)c2ccccc2)c2cccc([N+](=O)[O-])c2)s1 (centres unmarked),-3.38
20,CCCC(=O)NCCc1nc2ccccc2n1CC(C)C,0.121
21,CC(=O)c1cccc(NC(=O)CCC(=O)Nc2cccc(C(C)=O)c2)c1,0.313
